Measurements reported in patent publication US11155586B2, “Cystine knot scaffold platform” (Genentech, Inc., priority 2015, dated 2021).
pIC50: −log10 of the molar value. Read-outs that look alike come from different tables or passages of the source. For some assays here: At least one peptide structure holds a part that was inferred or is arguable (an end, a ring closure or a residue). For some assays here: At least one structure is not confirmed: it was looked up by name or label, or the drawing left a doubt. Some entries share one result that the patent states for a list of compounds. Positions of bridges follow the written chain, without caps; N, C: chain ends. Residues, ends and D or L forms follow the SMILES beside them.

Key:
[1] = target: T1, hVEGF(8-109) (Homo sapiens, UniProt P15692); assay: Spot phage ELISA; type: binding
T1 construct: hVEGF(8-109) or BSA were coated on 384-well MAXISORP™ immunoplates
T1 sequence (P15692 214-315): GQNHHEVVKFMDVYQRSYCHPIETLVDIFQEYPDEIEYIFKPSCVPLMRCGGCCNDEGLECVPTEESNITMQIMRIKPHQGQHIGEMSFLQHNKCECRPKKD
Protocol: After four rounds of binding selection, individual phage clones were picked and inoculated into 450 μl 2YT media containing 50 µg/ml Carbenecillin and M13-KO7 helper phage in 96-well blocks, which were grown at 37° C. overnight. The supernatant was analyzed with spot phage ELISA as follows: hVEGF(8-109) or BSA were coated on 384-well MAXISORP™ immunoplates and phage supernatant diluted (1:3) with PBT buffer was added to the wells. The plates were washed and bound phage was detected with anti-M13-HRP followed by TMB substrate. In these assays, phage binding to BSA alone was tested in parallel to assess background binding. Clones whose binding signals for hVEGF-A (8-109) were more than 3 times higher than to BSA (background) were considered positive. Positive clones were subjected to DNA sequence analysis.

[2] = target: T2, hVEGF-A (Homo sapiens, UniProt P15692); assay: KDR-CHO VEGF assay to determine cellular IC50 (VEGF mediated Tyr phosphorylation of KDR); type: cell-based; details: Table 25
T2 sequence (P15692 207-395): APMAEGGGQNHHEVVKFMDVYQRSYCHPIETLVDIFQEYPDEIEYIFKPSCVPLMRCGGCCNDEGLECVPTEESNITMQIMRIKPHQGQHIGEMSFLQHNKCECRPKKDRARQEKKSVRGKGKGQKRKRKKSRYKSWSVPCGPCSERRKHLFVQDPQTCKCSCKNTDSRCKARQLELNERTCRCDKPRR

[3] = target: T3, hVEGF-A (8-109) (Homo sapiens, UniProt P15692); assay: Phage competition ELISA; type: binding; details: read-out: phage ELISA IC50, soluble peptides, Table 25
T3 sequence (P15692 214-315): T1 sequence (P15692 214-315)

[4] = spot phage ELISA signal, EETI-II-based binders against hVEGF-A, Table 19

CSCC[C@@H]1NC(=O)[C@H](CCC(N)=O)NC(=O)[C@@H]2CSSC[C@@H]3NC(=O)[C@H](Cc4ccc(O)cc4)NC(=O)[C@H](CC(C)C)NC(=O)[C@H](C)NC(=O)[C@H](Cc4c[nH]c5ccccc45)NC(=O)[C@H](CC(N)=O)NC(=O)[C@H](Cc4ccccc4)NC(=O)[C@H]([C@@H](C)O)NC(=O)[C@@H]4CCCN4C(=O)[C@H](CC(=O)O)NC(=O)[C@H](CCC(N)=O)NC(=O)[C@@H](NC(=O)CN)CSSC[C@H](NC(=O)CNC(=O)[C@H](C)NC(=O)[C@H](CC(C)C)NC(=O)[C@H](CSSC[C@@H](C(=O)NCC(=O)O)NC(=O)[C@H](CO)NC(=O)[C@H](CCC(N)=O)NC(=O)[C@H](Cc4ccc(O)cc4)NC1=O)NC(=O)[C@H](CC(=O)O)NC(=O)[C@H](CO)NC(=O)[C@H](CC(=O)O)NC(=O)[C@H](CCC(N)=O)NC(=O)[C@H](CCCCN)NC3=O)C(=O)N[C@@H](C(C)C)C(=O)N2 [VEGF_CKP7] (H-GCQDPTFNWALYCKQDSDCLAGCVCQMYQSCG-OH; disulfide 2-23, 13-25, 19-31)
ELISA ([1]; CKP_7 affinity-matured binders, Table 21): 0.1 | S/N (signal to noise ratio as compared to BSA control) ([1]; Table 19): 54.5 | S/N (signal to noise ratio as compared to BSA control) ([1]; Table 21): 1.3 | ELISA [1, 4]: 3.4

CC(C)C[C@@H]1NC(=O)[C@@H]2CSSC[C@H](NC(=O)CNC(=O)[C@H](Cc3c[nH]c4ccccc34)NC(=O)[C@H](Cc3ccccc3)NC(=O)[C@@H]3CCCN3C(=O)[C@H](CCC(N)=O)NC(=O)[C@H](CC(C)C)NC(=O)[C@H](C(C)C)NC(=O)[C@H](CC(=O)O)NC(=O)[C@@H](NC(=O)CN)CSSC[C@@H](C(=O)N[C@H](C(=O)N[C@H]3CSSC[C@@H](C(=O)NCC(=O)O)NC(=O)[C@H](CO)NC(=O)[C@H](CCC(N)=O)NC(=O)[C@H](Cc4ccc(O)cc4)NC(=O)[C@H](Cc4c[nH]c5ccccc45)NC(=O)[C@H](Cc4c[nH]cn4)NC3=O)C(C)C)NC(=O)CNC(=O)[C@H](C)NC1=O)C(=O)N[C@@H](CCCCN)C(=O)N[C@@H](CCC(N)=O)C(=O)N[C@@H](CC(=O)O)C(=O)N[C@@H](CO)C(=O)N[C@@H](CC(=O)O)C(=O)N2 [VEGF_CKP9.2] (H-GCDVLQPFWGCKQDSDCLAGCVCHWYQSCG-OH; disulfide 2-21, 11-17, 23-29 (inferred); N-terminus and C-terminus assumed)
pIC50 ([2]; read-out: Cellular IC50): 6.57 | pIC50 ([2]; read-out: IC50 against VEGF-A in in vitro and cellular assays, improved potency compared to parent VEGF-CKP9): 6.70 to 7.00 | pIC50 [3]: 6.77

CC[C@H](C)[C@@H]1NC(=O)[C@H](CCC(N)=O)NC(=O)[C@@H](NC(=O)CN)CSSC[C@@H](C(=O)N[C@H](C(=O)N[C@H]2CSSC[C@@H](C(=O)NCC(=O)O)NC(=O)[C@H](CO)NC(=O)[C@H](CC(N)=O)NC(=O)[C@H](Cc3ccc(O)cc3)NC(=O)[C@H](Cc3ccccc3)NC(=O)[C@H](Cc3c[nH]cn3)NC2=O)C(C)C)NC(=O)CNC(=O)[C@H](C)NC(=O)[C@H](CC(C)C)NC(=O)[C@@H]2CSSC[C@H](NC(=O)CNC(=O)[C@H](Cc3c[nH]c4ccccc34)NC(=O)[C@H](Cc3ccccc3)NC(=O)[C@@H]3CCCN3C(=O)[C@H](CCC(N)=O)NC(=O)[C@H](CO)NC1=O)C(=O)N[C@@H](CCCCN)C(=O)N[C@@H](CCC(N)=O)C(=O)N[C@@H](CC(=O)O)C(=O)N[C@@H](CO)C(=O)N[C@@H](CC(=O)O)C(=O)N2 [VEGF_CKP9.3] (H-GCQISQPFWGCKQDSDCLAGCVCHFYNSCG-OH; disulfide 2-21, 11-17, 23-29 (inferred); N-terminus and C-terminus assumed)
pIC50 [3]: 5.82

CSCC[C@@H]1NC(=O)[C@H](CC(C)C)NC(=O)[C@H](CC(N)=O)NC(=O)[C@@H](NC(=O)CN)CSSC[C@@H](C(=O)N[C@H](C(=O)N[C@H]2CSSC[C@@H](C(=O)NCC(=O)O)NC(=O)[C@H](CO)NC(=O)[C@H](Cc3c[nH]cn3)NC(=O)[C@H](Cc3ccc(O)cc3)NC(=O)[C@H](Cc3c[nH]c4ccccc34)NC(=O)[C@H](CCCNC(=N)N)NC2=O)C(C)C)NC(=O)CNC(=O)[C@H](C)NC(=O)[C@H](CC(C)C)NC(=O)[C@@H]2CSSC[C@H](NC(=O)CNC(=O)[C@H](Cc3c[nH]c4ccccc34)NC(=O)[C@H](Cc3ccccc3)NC(=O)[C@@H]3CCCN3C(=O)[C@H](CC(C)C)NC1=O)C(=O)N[C@@H](CCCCN)C(=O)N[C@@H](CCC(N)=O)C(=O)N[C@@H](CC(=O)O)C(=O)N[C@@H](CO)C(=O)N[C@@H](CC(=O)O)C(=O)N2 [VEGF_CKP9.20]
pIC50 [3]: 5.87

CC(C)C[C@@H]1NC(=O)[C@@H]2CSSC[C@H](NC(=O)CNC(=O)[C@H](Cc3c[nH]c4ccccc34)NC(=O)[C@H](Cc3ccccc3)NC(=O)[C@@H]3CCCN3C(=O)[C@H](CCC(N)=O)NC(=O)[C@H]([C@@H](C)O)NC(=O)[C@H](CCCNC(=N)N)NC(=O)[C@H](CCC(N)=O)NC(=O)[C@@H](NC(=O)CN)CSSC[C@@H](C(=O)N[C@H](C(=O)N[C@H]3CSSC[C@@H](C(=O)NCC(=O)O)NC(=O)[C@H](CO)NC(=O)[C@H](CCC(N)=O)NC(=O)[C@H](Cc4ccc(O)cc4)NC(=O)[C@H](Cc4c[nH]c5ccccc45)NC(=O)[C@H](CCCNC(=N)N)NC3=O)C(C)C)NC(=O)CNC(=O)[C@H](C)NC1=O)C(=O)N[C@@H](CCCCN)C(=O)N[C@@H](CCC(N)=O)C(=O)N[C@@H](CC(=O)O)C(=O)N[C@@H](CO)C(=O)N[C@@H](CC(=O)O)C(=O)N2 [VEGF_CKP9.22] (H-GCQRTQPFWGCKQDSDCLAGCVCRWYQSCG-OH; disulfide 2-21, 11-17, 23-29 (inferred); N-terminus and C-terminus assumed)
pIC50 [3]: < 4.00

CSCC[C@@H]1NC(=O)[C@@H]2CCCN2C(=O)[C@H](CC(=O)O)NC(=O)[C@@H](NC(=O)CN)CSSC[C@@H](C(=O)N[C@H](C(=O)N[C@H]2CSSC[C@@H](C(=O)NCC(=O)O)NC(=O)[C@H](CO)NC(=O)[C@H](CCC(N)=O)NC(=O)[C@H](Cc3ccc(O)cc3)NC(=O)[C@H](Cc3c[nH]c4ccccc34)NC(=O)[C@H](CCCNC(=N)N)NC2=O)C(C)C)NC(=O)CNC(=O)[C@H](C)NC(=O)[C@H](CC(C)C)NC(=O)[C@@H]2CSSC[C@H](NC(=O)CNC(=O)[C@H](Cc3c[nH]c4ccccc34)NC(=O)[C@H](Cc3ccccc3)NC(=O)[C@@H]3CCCN3C(=O)[C@H](CCC(N)=O)NC1=O)C(=O)N[C@@H](CCCCN)C(=O)N[C@@H](CCC(N)=O)C(=O)N[C@@H](CC(=O)O)C(=O)N[C@@H](CO)C(=O)N[C@@H](CC(=O)O)C(=O)N2 [VEGF_CKP9.59] (H-GCDPMQPFWGCKQDSDCLAGCVCRWYQSCG-OH; disulfide 2-21, 11-17, 23-29; N-terminus and C-terminus assumed)
pIC50 [3]: 5.24

CC(C)C[C@@H]1NC(=O)[C@@H]2CSSC[C@H](NC(=O)CNC(=O)[C@H](Cc3c[nH]c4ccccc34)NC(=O)[C@H](CC(C)C)NC(=O)[C@@H]3CCCN3C(=O)[C@H](CCC(=O)O)NC(=O)[C@H](Cc3ccccc3)NC(=O)[C@H](CC(C)C)NC(=O)[C@H](CCCCN)NC(=O)[C@@H](NC(=O)CN)CSSC[C@@H](C(=O)N[C@H](C(=O)N[C@H]3CSSC[C@@H](C(=O)NCC(=O)O)NC(=O)[C@H](CO)NC(=O)[C@H](CCC(=O)O)NC(=O)[C@H](Cc4ccc(O)cc4)NC(=O)[C@H](Cc4c[nH]c5ccccc45)NC(=O)[C@H](CCCNC(=N)N)NC3=O)C(C)C)NC(=O)CNC(=O)[C@H](C)NC1=O)C(=O)N[C@@H](CCCCN)C(=O)N[C@@H](CCC(N)=O)C(=O)N[C@@H](CC(=O)O)C(=O)N[C@@H](CO)C(=O)N[C@@H](CC(=O)O)C(=O)N2 [VEGF_CKP9.96] (H-GCKLFEPLWGCKQDSDCLAGCVCRWYESCG-OH; disulfide 2-21, 11-17, 23-29; N-terminus and C-terminus assumed)
pIC50 [3]: 4.31

CC(C)C[C@@H]1NC(=O)[C@@H]2CSSC[C@@H](C(=O)NCC(=O)O)NC(=O)[C@H](CO)NC(=O)[C@H](CO)NC(=O)[C@H](Cc3ccc(O)cc3)NC(=O)[C@H](Cc3ccc(O)cc3)NC(=O)[C@H](CCC(N)=O)NC(=O)[C@@H]3CSSC[C@H](NC(=O)[C@H](CC(=O)O)NC(=O)[C@H](Cc4c[nH]c5ccccc45)NC(=O)[C@H](CCCCN)NC(=O)[C@H](C(C)C)NC(=O)[C@H](CC(=O)O)NC(=O)[C@H](CC(C)C)NC(=O)[C@H](CC(=O)O)NC(=O)[C@H](CCCNC(=N)N)NC(=O)[C@@H](NC(=O)CN)CSSC[C@H](NC(=O)CNC(=O)[C@H](C)NC1=O)C(=O)N[C@@H](Cc1ccccc1)C(=O)N3)C(=O)N[C@@H](CCCCN)C(=O)N[C@@H](CCC(N)=O)C(=O)N[C@@H](CC(=O)O)C(=O)N[C@@H](CO)C(=O)N[C@@H](CC(=O)O)C(=O)N2 [VEGF_CKP10] (H-GCRDLDVKWDCKQDSDCLAGCFCQYYSSCG-OH; disulfide 2-21, 11-23, 17-29)
S/N (signal to noise ratio as compared to BSA control) ([1]; Table 19): 43.7 | ELISA [1, 4]: 3.2
